According to PubChem BioAssay AID488969 (Vanderbilt High Throughput Screening Facility, 2010):
In all, about 110,000 compounds were measured (“z-score”: median about -0.1, highest 2% from about 2 on). The list shows a part of the results.

target: Metabotropic glutamate receptor 8 (Rattus norvegicus) (UniProt P70579); assay: rat mGluR8 modulators via GIRK flux, primary screen, cell-based, thallium flux, HTS (AID 488969); conditions: HEK293 rat mGluR8, GIRK (G protein-gated inwardly rectifying potassium channel) thallium flux, FluoZin2; at 10 µM; stronger effect = higher value; submaximal glutamate (EC20) added with thallium
UniProt P70579, sequence (P70579 whole entry, looked up): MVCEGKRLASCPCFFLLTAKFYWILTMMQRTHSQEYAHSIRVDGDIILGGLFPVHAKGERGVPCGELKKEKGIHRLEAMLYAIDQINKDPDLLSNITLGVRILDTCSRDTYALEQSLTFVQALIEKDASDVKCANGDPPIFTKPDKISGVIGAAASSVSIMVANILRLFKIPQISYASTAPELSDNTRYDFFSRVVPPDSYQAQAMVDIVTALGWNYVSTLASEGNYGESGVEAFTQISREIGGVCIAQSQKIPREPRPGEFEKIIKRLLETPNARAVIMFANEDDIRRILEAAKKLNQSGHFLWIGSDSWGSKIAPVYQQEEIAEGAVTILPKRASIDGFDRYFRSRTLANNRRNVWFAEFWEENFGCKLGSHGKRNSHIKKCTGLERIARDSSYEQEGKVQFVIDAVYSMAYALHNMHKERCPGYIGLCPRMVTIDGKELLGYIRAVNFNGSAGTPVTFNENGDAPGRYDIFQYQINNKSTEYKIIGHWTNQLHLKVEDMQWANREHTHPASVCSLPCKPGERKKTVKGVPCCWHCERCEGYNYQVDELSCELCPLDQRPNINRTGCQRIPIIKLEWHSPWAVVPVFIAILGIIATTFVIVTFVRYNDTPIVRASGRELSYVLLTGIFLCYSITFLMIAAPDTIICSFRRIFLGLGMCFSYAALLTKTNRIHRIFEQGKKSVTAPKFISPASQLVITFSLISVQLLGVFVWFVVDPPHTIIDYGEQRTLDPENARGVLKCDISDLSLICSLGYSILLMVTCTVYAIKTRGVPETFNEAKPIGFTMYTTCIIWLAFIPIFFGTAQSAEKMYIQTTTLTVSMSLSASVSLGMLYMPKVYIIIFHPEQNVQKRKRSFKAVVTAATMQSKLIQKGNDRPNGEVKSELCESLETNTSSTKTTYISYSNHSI

| Compound | z-score |
| --- | --- |
| Cc1cccnc1NC(=S)NC(=O)c1cccs1 | 0.0645 |
| COc1ccc(NC(=O)c2c(C)cc(=O)oc2C)c(OC)c1 | -0.316 |
| CCn1c(N2CCN(C(=O)Nc3ccc(F)cc3)CC2)nc2ccccc21 | -1.03 |
| Cn1c(C(C#N)/C(=N\S(=O)(=O)c2cccs2)c2ccccc2)nc2ccccc21 (stereo not given) | 0.134 |
| O=C(CCN1CCCCC1c1cccnc1)NCc1ccccc1 (stereo not given) | -0.0612 |
| COc1ccc(N2C(=O)CCC(C(=O)N3CCOCC3)C2c2ccc(F)cc2)cc1 (stereo not given) | -0.266 |
| Cc1cc(C)cc(N2CCCn3c2nc2c3c(=O)n(CCN3CCOCC3)c(=O)n2C)c1 | -0.855 |
| CCS(=O)(=O)N1CCC(C(=O)NCc2ccco2)CC1 | 0.0456 |
| c1ccc(-c2ccc(-c3cn4c(n3)CCC4)cc2)cc1 | -0.138 |
| CCOc1ccccc1/C=C(/NC(=O)c1ccccc1)C(=O)NCC(=O)O | 0.703 |
| O=C(O)CCC(=O)N1N=C(c2ccccc2)CC1c1ccc2nccnc2c1 (stereo not given) | 0.396 |
| O=[N+]([O-])c1cnccc1Nc1ccc(F)cc1 | 0.0228 |
| CCC1(COC(=O)Nc2cccc(Cl)c2)COC1 | -0.502 |
| Cc1c(-c2nc(N)nc(Nc3ccc(F)cc3)n2)oc2ccccc12 | 0.117 |
| Cn1c(Cc2csc(N)n2)nnc1SC/C=C/c1ccccc1 | -0.411 |
| Cn1cccc1/C=N/NC(=O)c1sc2ccccc2c1Cl | 1.01 |
| Cc1c(N(C)C(=O)C2CCCN2S(=O)(=O)c2ccccc2)c(=O)n(-c2ccccc2)n1C (stereo not given) | -0.0643 |
| CCN1CCCC1CNC(=O)Cn1ncc2c(=O)oc3ccc(C)cc3c21 (stereo not given) | 0.276 |
| O=C(c1ccc2c(c1)OCO2)N1CCN(c2ccc(C(F)(F)F)cn2)CC1 | 0.271 |
| Cc1ccc2c(c1)NC(=O)C(CC(=O)NCc1cccnc1)O2 (stereo not given) | -0.984 |
| O=C(COC(=O)c1cccnc1Cl)c1ccc(Cl)cc1Cl | -0.255 |
| C=CCC(c1ccccc1F)N(CCN1CCOCC1)C(=O)Nc1cccc(Cl)c1 (stereo not given) | 0.497 |

| Compound | z-score |
| --- | --- |
| CCCN1CCCc2cc(CN)ccc21 | -0.537 |
| O=C(Nc1ccc(N2CCCC2)c(Cl)c1)c1ccc([N+](=O)[O-])cc1 | 0.316 |
| CCc1ccc(C2=NN(c3ccc(S(N)(=O)=O)cc3)C(c3ccc(F)cc3)C2)cc1 (stereo not given) | -0.695 |
| CC(=O)c1c(C)oc(C)c1CSCc1ccc(C(=O)O)o1 | 0.674 |
| Cc1ccc(/C(O)=C2/C(=O)C(=O)N(Cc3cccnc3)C2c2ccccn2)cc1 (stereo not given) | -0.308 |
| Cc1cc(NC(=O)CSc2nnc(-c3ccncc3)n2N)ccc1Br | 0.324 |
| COc1ccc(OC)c(-n2c(SCC(=O)NCc3ccco3)nnc2-c2c[nH]c3ccccc23)c1 | -1.04 |
| CCOc1cc(CNCc2cccs2)ccc1OCC(=O)NC(C)(C)C | -0.0695 |
| N#Cc1cc2c(nc1SCC(O)CS(=O)(=O)Cc1ccccc1)CCCC2 (stereo not given) | -1.27 |
| Cc1cccc(-n2c(C)n[nH]c2=S)c1 | -0.139 |
| COc1ccc(-c2cc3ccccc3oc2=O)cc1NC(=S)NC(=O)c1ccc2c(c1)OCCO2 | 0.101 |
| CCc1c(C)c2ccc(O)c(CN(C)C)c2oc1=O | -0.539 |
| CC(C)CN(CCC(=O)O)CC(C)C | -0.103 |
| COc1cc(C2=NOC(C(=O)N3CCN(c4ccc(F)cc4)CC3)C2)cc(OC)c1OC (stereo not given) | -0.19 |
| COc1ccc(CCN(C)Cc2ccc(OC)c(OCc3ccccc3)c2)cc1OC | 0.311 |
| C/C(=N\NC(=O)c1ccccc1O)C1C(=O)c2ccccc2C1=O | -0.839 |
| COc1ccc(C(=O)NNC(=O)CN2CCC(n3nnc4cc(F)ccc43)CC2)cc1 | -0.223 |
| Cc1ccc(NC(=O)CNc2ccc(Cl)cc2F)cc1 | -0.328 |
| CC(=O)Nc1ccc(S(=O)(=O)Nc2nc3ccccc3s2)cc1 | 0.125 |
| COCc1cc(C)nc(OCC(=O)N/N=C/c2cccc(OC)c2)c1C#N | -0.16 |
| CC(=O)N1CCN(S(=O)(=O)c2cccc(C(=O)Nc3ccc4c(c3)CCC4)c2)CC1 | -0.275 |
| COc1ccc2nc(NC(=O)C(NS(=O)(=O)c3cccs3)C(C)C)sc2c1 (stereo not given) | 0.0812 |

| Compound | z-score |
| --- | --- |
| Cc1ccc(C)c(NS(=O)(=O)c2c(C)ccc3nsnc23)c1 | -0.891 |
| O=C(Nc1ccccc1Cl)C1CCN(Cc2cnn(-c3ccccc3)c2-n2cccc2)CC1 | 0.64 |
| O=C(/C=C\c1ccccc1OC(=O)c1ccccc1F)c1cc2ccccc2o1 | -0.221 |
| Cc1cc(-c2ccccc2)nc(SCC(=O)c2cccc([N+](=O)[O-])c2)n1 | -0.102 |
| COC(=O)COc1cc(Br)c(/C=C2/SC(=O)N(CC(=O)N3CCCC3)C2=O)cc1OC | 0.0962 |
| COc1ccc(C)cc1NS(=O)(=O)c1ccc(NC(=O)CN(c2cc([N+](=O)[O-])ccc2C)S(C)(=O)=O)cc1 | 0.504 |
| N#Cc1nc(COc2ccccc2Cl)oc1NCc1cccnc1 | 0.291 |
| COCC(=O)N(Cc1ccccc1)c1ccccn1 | 1.37 |
| S=c1[nH]nc(-c2ccccc2)n1CC1CCCO1 (stereo not given) | 0.274 |
| CCN(C(=O)C1CCN(S(=O)(=O)c2cccc3nonc23)CC1)c1ccccc1 | -0.39 |
| COc1ccccc1-n1c(C)nnc1SCC(=O)Nc1cccc(C(C)=O)c1 | -0.146 |
| Cn1c(=O)oc2cc(S(=O)(=O)N3CCN(Cc4ccc5c(c4)OCO5)CC3)ccc21 | 0.012 |
| O=C(N/N=C/C(Br)=C/c1ccccc1)c1n[nH]c2c1CCC2 | -0.353 |
| Oc1cnc2ccccc2c1CN1CCOCC1 | -0.0791 |
| CC[C@H](C)[C@H](NS(=O)(=O)c1ccc(C)cc1)C(=O)N1CCC(C(=O)N[C@H](C(=O)O)C(C)C)CC1 | -0.226 |
| Cc1ccccc1/C=C\c1nc2ccccc2c(=O)n1Cc1ccccc1 | -0.398 |
| COc1ccc(C(=O)N2CCCCC2)cc1S(=O)(=O)Nc1cccc(C(=O)O)c1 | -0.158 |
| COCCN(C(=O)Cn1nnc2ccccc21)C(C(=O)NC1CCCCC1)c1ccc(OC)cc1OC (stereo not given) | -0.181 |
| COc1ccc(C(=O)Nc2cccc([N+](=O)[O-])c2)cc1Br | -0.00461 |
| O=C(CNC(=O)c1ccc(Cl)cc1Cl)OCc1nc2ccccc2s1 | -0.264 |
| c1ccc(CNc2nc(N3CCOCC3)nc(N3CCOCC3)n2)cc1 | 0.936 |
| O=C(CSc1nnc(CNc2ccccc2)o1)N1CCN(C(=O)c2ccco2)CC1 | -0.381 |

| Compound | z-score |
| --- | --- |
| O=C(Cc1cccs1)N1CCN(c2ccccn2)CC1 | 0.0578 |
| COC(=O)N1CCN(S(=O)(=O)c2ccc(F)cc2)CC1 | -0.221 |
| CS/C(=N\S(=O)(=O)c1ccccc1)c1ccccc1 | -0.29 |
| CC(=O)c1ccc(OCCCC(=O)NCC(c2ccco2)N(C)C)cc1 (stereo not given) | 0.0767 |
| N#CCSc1nnc(Cc2ccc3c(c2)OCO3)o1 | -0.249 |
| CCc1ccc(C2C(C#N)=C(N)N(N(C)C)C3=C2C(=O)CCC3)s1 (stereo not given) | -0.236 |
| Cc1c(NC(=O)c2cccs2)cccc1C(=O)O | -0.0535 |
| Cc1cccc(NC(=O)c2cc(NC(=O)C3CC=CCC3C(=O)O)ccc2N2CCOCC2)c1 (stereo not given) | -0.0948 |
| CCOC(=O)C1C(C)=C(Nc2ccc(OC)cc2)C(=O)N1c1ccc(OC)cc1 (stereo not given) | -0.098 |
| COc1ccc(C(C)NC(=O)Cc2ccc(Br)cc2)cc1 (stereo not given) | -0.109 |
| CCOc1ccc(OCCCN(C)C)cc1 | -0.326 |
| O=c1ccc(Br)c[nH]1 | 0.762 |
| C/C(Cc1ccccc1)=N\NC(=O)CNC(=O)c1ccccc1Br | -0.177 |
| Cc1cc([N+](=O)[O-])ccc1NC(=S)NC(=O)C(c1ccccc1)c1ccccc1 | 0.175 |
| Cc1cc(C)n(-c2ncc(-c3ccccc3)nn2)n1 | -0.466 |
| N#CCSCC(=O)Nc1ccccc1 | 0.075 |
| O=C(O)CCCC(=O)N1CCN(C(c2ccccc2)c2ccccc2)CC1 | -0.256 |
| Cc1ccc(SCCNS(=O)(=O)c2ccc(F)cc2)cc1 | 0.0299 |
| O=C(O)CCC(NS(=O)(=O)c1ccc(-c2ccccc2)cc1)C(=O)O (stereo not given) | -0.062 |
| O=C(NCCN1CCOCC1)c1cc(-c2ccccc2)on1 | -0.258 |
| CSC1=C(C#N)C(c2ccc(C)cc2)C2=C(CCCC2=O)N1 (stereo not given) | -0.0937 |
| CCOc1ccccc1N1CC(C(=O)N2CCc3ccccc3C2)CC1=O (stereo not given) | -0.0685 |

| Compound | z-score |
| --- | --- |
| O=C(O)CNc1nc(-c2ccccc2)c2cc([N+](=O)[O-])ccc2n1 | -0.683 |
| O=C1C=C(Nc2cccc(O)c2)CC(c2ccco2)C1 (stereo not given) | 0.0554 |
| Cc1ccc(CNc2nc(N)c([N+](=O)[O-])c(Nc3ccc(F)cc3)n2)cc1 | -0.336 |
| Cc1cccc(-c2nc(Nc3ccc(N4CCOCC4)cc3)c3ccccc3n2)c1 | -0.232 |
| Cc1ccccc1S(=O)(=O)Nc1cccnc1 | -0.0103 |
| COc1ccc(CCn2c(=O)[nH]c3cc(C(=O)NCCc4ccccc4)ccc3c2=O)cc1OC | -0.127 |
| O=C1CCN(C(=O)Nc2ccccc2Cl)N1 | 0.00385 |
| CCOc1cccc2cc(C(=O)N3CCN(C/C=C/c4ccccc4)CC3)c(=O)oc12 | -0.692 |
| CC(=O)N1CCN(C(=O)CCc2c[nH]c3ccccc23)CC1 | 0.594 |
| CC(=O)N(CN1C(=O)CCC1=O)c1cccc(Cl)c1 | -0.0175 |
| Cc1nc(N2CCC(C)CC2)c2nnn(Cc3ccccc3)c2n1 | -0.442 |
| COc1ccc(C(=O)/C=C/c2ccc(F)cc2)c(OC(=O)c2ccc([N+](=O)[O-])cc2)c1 | -0.0758 |
| C/C(CCc1ccco1)=N/NC(=O)CCC(=O)Nc1cccc(Cl)c1 | -0.196 |
| Cc1ccc(CSCc2nnc(SCC(=O)N3CCN(c4ccccc4)CC3)n2C)cc1 | 0.00269 |
| O=C(NCc1cccnc1)C(=O)NCC(c1ccco1)N1CCN(c2ccccc2)CC1 (stereo not given) | -0.0621 |
| CCOc1ccccc1-n1c(CN2CCN(C(=O)c3ccco3)CC2)nc2ccccc2c1=O | -0.108 |
| COC(=O)c1cccc(C(=O)Nc2ccc(C)cc2Br)n1 | 0.0996 |
| Cc1cccc2nc(CSC(=N)N)c(Br)n12 | 0.209 |
| Nc1c(S(=O)(=O)c2cccs2)c2nc3ccccc3nc2n1/N=C/c1cccc(O)c1 | 0.0879 |
| CCC(C)Sc1nnc(CSc2nc3nc(C)cc(C)n3n2)o1 (stereo not given) | -0.13 |
| Fc1cccc(NCc2ccoc2)c1 | -0.372 |
| Cc1cc(-c2ccco2)n(CC(=O)NCc2ccco2)n1 | -0.337 |
